Hit rate of the full screen: of about 290,000 compounds, about 2,100 (0.72%) were called active. The inconclusive results got no clear call from the source; some entries with a clear call stand among them for comparison. Calls follow the shape of the dose curve; as a rule, active = well fitted inhibition curve with a large enough effect; inconclusive = small, poorly fitted or top-dose-only effect, or effect the other way; inactive = flat fitted curve, though single readings scatter. Potencies beside an inconclusive call are fits to weak or partial responses and may not hold up.
The compounds below were run against Fructose-bisphosphate aldolase (Giardia intestinalis (strain ATCC 50803 / WB clone C6)) (UniProt A8B2U2) (assay: qHTS Assay for Inhibitors of Fructose-1,6-bisphosphate Aldolase from Giardia Lamblia). Conditions: purified Giardia FBPA; activity, negative = inhibition: at 59.6 µM (top of the series) unless noted.
Sequence of UniProt A8B2U2 (A8B2U2 whole entry, looked up): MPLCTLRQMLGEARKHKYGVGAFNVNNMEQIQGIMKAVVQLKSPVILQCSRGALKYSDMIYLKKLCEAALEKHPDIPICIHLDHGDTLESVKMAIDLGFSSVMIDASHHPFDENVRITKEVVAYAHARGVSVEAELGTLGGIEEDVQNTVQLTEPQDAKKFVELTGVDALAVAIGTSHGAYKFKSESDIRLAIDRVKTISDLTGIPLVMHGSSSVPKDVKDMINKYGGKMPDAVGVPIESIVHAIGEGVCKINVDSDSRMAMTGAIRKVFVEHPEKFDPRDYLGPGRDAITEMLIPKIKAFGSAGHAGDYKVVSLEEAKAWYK
Summary of the method: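 Giardia FBPA (40 nM reagent) was preincubated 10 min at RT with compound (up to 57.5 uM final), then substrate plus GAPDH/TPI/NAD/arsenate coupling system with diaphorase/resazurin was added; resorufin fluorescence (525/598 nm) was read after 20 min.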
% is scaled to controls: 0 for no effect and ±100 for the full control effect; potency is read from the fitted curve at half-maximal effect; tags tell the direction and shape of the fitted curve.
Also: nearly all actives have a fitted effect of over 55% in size.

Structure (SMILES) | activity, negative = inhibition | Potency
CC(O)/C=C/c1cccc[n+]1C (configuration not stated) | inactive: -6.36% | –
COc1ccc(C2c3c(-c4ccccc4O)n[nH]c3C(=O)N2Cc2ccco2)cc1 (configuration not stated) | inactive: -0.676% | –
CCOc1cc(N2CCOCC2)c(OCC)cc1NCC(=O)N1CCN(Cc2ccccc2)CC1 | – | inconclusive: 5 µM [inhibitor, full curve]
O=C(c1ccc([N+](=O)[O-])cc1Cl)N1CCN(c2ccccn2)CC1 | inactive: 0.0658% | –
COc1ccccc1N1C(=O)CC(Nc2ccc(N3CCOCC3)cc2)C1=O (configuration not stated) | – | inconclusive: 17.7 µM [inhibitor, single point]
COc1ccc(NC(=S)N2CCN(C(=O)c3ccco3)CC2)cc1 | – | inconclusive: 39.8 µM [inhibitor, single point]
CCCCN1CCc2c1nc1ccc(Br)cc1c2N | inactive: -5.61% | –
O=C(O)c1ccc(N2C(=O)CC(N3CCC(c4nc5ccccc5[nH]4)CC3)C2=O)cc1 (configuration not stated) | – | inconclusive: 15.8 µM [inhibitor, single point]
Cc1nnc(N/N=C/c2c(Cl)cccc2Cl)n1N | – | active: 22.3 µM
C#CCCCO/N=C1/[C@H]2O[C@@H]2[C@@H](O)[C@H]2[C@H]1CCn1c(=O)n([C@@H](CC)c3ccccc3)c(=O)n12 | inactive: 1.22% [at 12.9 µM] | –
CS(=O)(=O)/C(C#N)=C\c1cnc(S(=O)(=O)c2ccccc2)s1 | – | inconclusive: 17.8 µM [inhibitor, partial curve]
COC(=O)c1ccc2c(=O)n(-c3ccccc3)c(=S)[nH]c2c1 | – | inconclusive: 19.9 µM [inhibitor, single point]
COc1cc(/C=N\Nc2nncn2N)ccc1OC(C)=O | – | active: 25.1 µM
CNC(=S)NCCCCc1cnc[nH]1 | – | active: 11.2 µM
CCc1ccc(S(=O)(=O)c2nnn3c2nc(N2CCOCC2)c2ccccc23)cc1 | inactive: 8.01% | –
Nc1cc(=O)[nH]c(SCC(=O)Nc2ccccc2Sc2ccc(Cl)cc2)n1 | – | inconclusive: 17.7 µM [inhibitor, partial curve]
CC1(c2ccc(Cl)cc2)NC(=S)N2C1NC(=S)N2c1ccccc1 (configuration not stated) | – | inconclusive: 19.9 µM [inhibitor, single point]
CCCn1c(=O)c(C(=O)Nc2ncccc2O)c(O)c2ccccc21 | – | inconclusive: 35.5 µM [inhibitor, single point]
O=c1c2ccccc2nc(COc2ccccc2)n1/N=C/c1cc([N+](=O)[O-])ccc1O | – | inconclusive: 5 µM [activator, full curve]
C/C(=N/NC(N)=S)c1ccccc1[N+](=O)[O-] | – | inconclusive: 14.1 µM [inhibitor, partial curve]
CN(Cc1ccccc1)C(=O)CCSc1nc(-c2ccc3c(c2)OCO3)cc(C(F)(F)F)n1 | inactive: -3.51% | –
Cc1ccc(CNc2ccc(CNc3ncn[nH]3)cc2)cc1 | inactive: 0.572% | –
O=C(O)c1cc(N2C(=O)CCC2=O)ccc1Cl | inactive: 1.88% | –
COc1ccc(NC(=S)N2CCC(N(C)CC3CCCO3)CC2)cc1Cl (configuration not stated) | inactive: 0.727% | –
COc1ccc(CN2CCCC(C(=O)N(C)Cc3ccccc3)C2)cc1OC (configuration not stated) | – | inconclusive: 19.9 µM [inhibitor, single point]
CN(C)N1C(N)=C(C#N)C(c2ccsc2)C2=C1CCCC2=O (configuration not stated) | inactive: -25.9% | –

Structure (SMILES) | activity, negative = inhibition | Potency
Cc1ccc(-n2c(CSc3nc(C)cc(C)n3)n[nH]c2=S)cc1 | inactive: 1.28% | –
CSc1ccc(/C=N/n2c(COc3ccccc3)n[nH]c2=S)cc1 | – | inconclusive: 35.5 µM [activator, partial curve]
Cc1nnc(NC(=O)c2sc3ccccc3c2Cl)s1 | – | inconclusive: 19.9 µM [inhibitor, partial curve]
Fc1cccc2sc(Nc3nnc(-c4ccco4)o3)nc12 | – | inconclusive: 15.8 µM [inhibitor, partial curve]
CCN1CCN(C(C)C(=O)NC2CCCCC2)CC1 (configuration not stated) | – | inconclusive: 14.1 µM [inhibitor, partial curve]
COc1ccc2cc(C(=O)N/N=C/c3sc4ccccc4c3O)ccc2c1 | – | inconclusive: 35.4 µM [activator, single point]
CCOC(=O)c1csc(NC(=O)c2cc(=O)c3ccccc3o2)n1 | – | inconclusive: 15.8 µM [inhibitor, single point]
Nc1ncc(Br)cc1N=Cc1ccccc1 | – | active: 1.12 µM
CC(C)c1ccc(NC(=O)Cn2nnc(C(=O)NCc3ccco3)c2N)cc1 | inactive: -2.84% | –
O=c1c2c(-c3ccccc3)csc2nc2c3ccccc3c(NCCN3CCOCC3)nn12 | inactive: -4.68% | –
CC(=O)Nc1ccc(/C=N/NC(N)=S)cc1 | – | inconclusive: 15.8 µM [inhibitor, single point]
CCCCCC(=O)NC(=S)NNC(=O)CC | – | inconclusive: 9.98 µM [activator, partial curve]
Cc1ccc(NCc2ccco2)cc1C | – | inconclusive: 17.7 µM [inhibitor, partial curve]
CCc1ccccc1NC(=O)/C(C#N)=C/c1ccc(Sc2ccccc2)o1 | inactive: -4.65% | –
COc1ccc(Cl)c2c1[nH]c1nc(SCc3cccnc3)nnc12 | inactive: 1.11% | –
O=S(=O)(c1ccc(Br)cc1)N1CCN(c2cc(-c3ccccc3)nc3ncnn23)CC1 | inactive: 3.87% | –
CCOc1ccccc1NS(=O)(=O)c1cccs1 | – | active: 14.1 µM
O=C1C2C3C=CC(C4CC34)C2C(=O)N1/N=C/c1ccc([N+](=O)[O-])o1 (configuration not stated) | – | inconclusive: 22.3 µM [inhibitor, partial curve]
COc1cccc(C(=O)NC2CC3CCCC(C2)N3CC(=O)Nc2ccccc2)c1 (configuration not stated) | – | inconclusive: 25.1 µM [inhibitor, single point]
COc1cccc(Nc2ncc3nc(C)c(=O)n(CCc4ccccc4)c3n2)c1 | inactive: 5.86% | –
C=C(C)CSc1cc(C)c(C#N)c2nc3ccccc3n12 | – | inconclusive: 2.23 µM [inhibitor, full curve, poor fit]
COc1ccc(CN2CCN(C(=O)c3cccc4ccccc34)CC2)c(OC)c1OC | – | inconclusive: 12.6 µM [inhibitor, partial curve]
O=C1CSC(=S)N1/N=C/c1ccc(O)c([N+](=O)[O-])c1 | – | inconclusive: 3.97 µM [inhibitor, single point]
COc1cccc(OCc2nn[nH]n2)c1 | – | inconclusive: 31.6 µM [inhibitor, partial curve]
COC(=O)c1c(N)n(-c2ccc(N3CCOCC3)cc2)c2nc3ccccc3nc12 | – | inconclusive: 5 µM [inhibitor, partial curve]
O=C(Nc1ccccc1Cl)c1ccc2ccccc2c1 | inactive: -3.7% | –

Structure (SMILES) | activity, negative = inhibition | Potency
O=C(Nc1nnc(-c2ccncc2)o1)c1cccc(N2C(=O)CCC2=O)c1 | – | active: 19.9 µM
Cc1cc(OCC(=O)Nc2ccc(S(=O)(=O)N3CCN(C)CC3)cc2)cc(C)c1Cl | – | inconclusive: 17.7 µM [inhibitor, single point]
COc1ccc(-n2ncc3c2CC(C)(C)CC3NC(=O)c2ccc(OC)o2)cc1 (configuration not stated) | inactive: 5.94% | –
COc1cc(/C=C(\NC(C)=O)C(=O)Nc2cccc(O)c2)ccc1OC(C)=O | inactive: 0.582% | –
O=C(NC(=S)Nc1nc2ccccc2s1)c1cccs1 | – | inconclusive: 4.46 µM [inhibitor, full curve]
CC1=C(C)C(C)=C(C#N)C(=C(C#N)C#N)N1 | – | inconclusive: 7.06 µM [inhibitor, partial curve]
Cc1cccc(-n2c(C)n[nH]c2=S)c1C | – | inconclusive: 3.55 µM [inhibitor, full curve]
COCc1ccc(C(=O)NCC2(N3CCCCC3)CCCCC2)cc1 | – | inconclusive: 20 µM [inhibitor, partial curve]
COc1ccc(/C(N)=N/OC(=O)c2cccc([N+](=O)[O-])c2)cc1 | inactive: 3.37% | –
CCc1nnc(NC(=O)c2nc(S(=O)(=O)Cc3cccc(C)c3)ncc2Cl)s1 | – | inconclusive: 31.6 µM [inhibitor, single point]
CC(=O)/C(=N\Nc1ccccc1)Sc1nncn1C | – | active: 3.54 µM
COc1ccc(NC(=O)CSc2c3c(nc4cc(Cl)ccc24)CCCC3)cc1OC | inactive: 4.75% | –
CC1(C)C=C2C(=NN(c3ccccc3)C(N)=C2C#N)CO1 | – | active: 1.58 µM
Cc1ccc2cccc(Oc3nnnn3-c3ccccc3)c2n1 | – | inconclusive: 19.9 µM [inhibitor, partial curve]
CC1=C/C(=N\OS(=O)(=O)c2ccccc2)C(C)=CC1=O | – | active: 7.92 µM
Cc1ccccc1CNC(=O)c1ccc(Cl)c([N+](=O)[O-])c1 | – | inconclusive: 28.1 µM [activator, single point]
CCOC(=O)N1CCC(N2C(=O)c3ccccc3C2Nc2ccc3c(c2)OCCO3)CC1 (configuration not stated) | – | inconclusive: 19.9 µM [inhibitor, partial curve]
O=C(O)CCCN1C(=O)/C(=C\c2ccco2)SC1=S | – | inconclusive: 31.5 µM [inhibitor, single point]
Nc1nc(-c2ccco2)cs1 | – | inconclusive: 15.8 µM [inhibitor, partial curve]
CCN(Cc1ccccc1)S(=O)(=O)c1cc(C(=O)O)ccc1OC | – | inconclusive: 22.3 µM [activator, partial curve]
COc1cccc(COCC(O)Cn2cnc3cc(C)c(C)cc32)c1 (configuration not stated) | – | active: 19.9 µM
COc1cc(CC(=O)Nc2cccc(SC)c2)cc(OC)c1OC | inactive: -0.689% | –
Cc1ccc2nc(SCC(=O)NCc3ccc(S(N)(=O)=O)cc3)[nH]c2c1 | – | inconclusive: 12.6 µM [inhibitor, partial curve]
C=CCn1c(CCC(O)COCCCCC)n[nH]c1=S (configuration not stated) | – | inconclusive: 7.06 µM [inhibitor, partial curve]
O=C(O)c1cc(-c2cc(C(=O)O)c3ccccc3n2)nc2ccccc12 | – | active: 2.51 µM
